# Source: the supplement of paper PMC6531468
# Some of the results follow. Read counts after selection give these values, which scatter widely. Each score is taken over the longer molecules that contain the sequence shown.
# Tested on: IMP3 KH1-4
# Test: 6-mer SELEX enrichment z-score vs GST control; IMP3 is the RNA-binding protein IGF2BP3; higher = more enriched by binding
# Details: construct: KH1-4 (164-579); SELEX round: R4
# Description: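 SELEX-seq with GST-tagged IMP3 KH1-4 (Pro164-Lys579) and an N40 RNA pool, round 4. 6-mer z-score of sequence-tag enrichment normalised to the corresponding GST SELEX round; RNA k-mers written as DNA (T for U).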
# Sequence of IMP3 KH1-4 (chain, as listed by the source): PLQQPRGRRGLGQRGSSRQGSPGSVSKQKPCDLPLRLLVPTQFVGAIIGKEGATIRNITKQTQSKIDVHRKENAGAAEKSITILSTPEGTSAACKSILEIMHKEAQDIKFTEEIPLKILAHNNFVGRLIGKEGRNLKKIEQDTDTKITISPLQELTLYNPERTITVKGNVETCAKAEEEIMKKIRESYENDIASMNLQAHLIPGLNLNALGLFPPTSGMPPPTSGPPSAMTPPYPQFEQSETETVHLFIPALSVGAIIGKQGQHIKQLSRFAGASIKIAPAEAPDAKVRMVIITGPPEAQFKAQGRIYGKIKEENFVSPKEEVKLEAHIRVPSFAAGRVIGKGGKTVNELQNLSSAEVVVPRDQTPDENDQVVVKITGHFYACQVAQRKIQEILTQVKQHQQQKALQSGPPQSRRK
row,Sequence,6-mer SELEX enrichment z-score
1,ATGCAC,1.52
2,TCTGGT,0.004
3,TAGGTT,0.145
4,CGGGTG,-0.814
5,GCCGGG,-0.184
6,AGTGCC,-0.978
7,GCCTTT,0.092
8,GTAGGT,-0.103
9,CTCTAT,0.462
10,TGGACA,0.635
11,GATGAG,0.222
12,GTCTTA,-0.207
13,GCCTCC,-0.308
14,CCACGC,-0.561
15,CGAGGT,-0.659
16,AATTTG,0.466
17,GAAGTA,-0.141
18,TGCCCA,-1.95
19,TCTCGT,-0.37
20,CAGTGT,-0.402

row,Sequence,6-mer SELEX enrichment z-score
1,CATGAT,1.5
2,CGTGCT,-0.328
3,TCACAG,0.42
4,CAGTGC,0.167
5,CGGAGC,-1.34
6,GTTCTT,0.222
7,GGTCTT,-0.04
8,CCTAAT,-0.267
9,CGCGTC,-0.695
10,AAGGAG,0.565
11,GATATG,1.15
12,GATGCT,0.099
13,AGGATA,0.986
14,TATACC,-0.097
15,AGGCTT,0.19
16,CAGCAG,0.519
17,GGAGAT,0.828
18,GACGTA,-1.8
19,CATAAA,1.5
20,GTAACT,-0.446

# Tested on: IMP3 RRM1-2
# Test: as above
# Details: construct: RRM1-2 (1-163); SELEX round: R2
# Description: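 SELEX-seq with GST-tagged IMP3 RRM1-2 (Met1-Asn163) and an N40 RNA pool, round 2. 6-mer enrichment z-score normalised to GST SELEX. RNA written as DNA (T = U).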
# Sequence of IMP3 RRM1-2 (chain, as listed by the source): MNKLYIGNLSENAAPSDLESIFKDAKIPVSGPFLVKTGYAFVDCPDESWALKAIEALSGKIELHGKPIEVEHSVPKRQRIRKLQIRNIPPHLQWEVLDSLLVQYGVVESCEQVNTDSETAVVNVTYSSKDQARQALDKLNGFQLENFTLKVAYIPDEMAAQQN
row,Sequence,6-mer SELEX enrichment z-score
1,ATGCAC,0.453
2,TCTGGT,0.554
3,TAGGTT,0.432
4,CGGGTG,0.025
5,GCCGGG,-0.407
6,AGTGCC,-0.187
7,GCCTTT,0.121
8,GTAGGT,0.304
9,CTCTAT,0.234
10,TGGACA,-0.319
11,GATGAG,-0.583
12,GTCTTA,0.309
13,GCCTCC,-0.275
14,CCACGC,-0.07
15,CGAGGT,-0.117
16,AATTTG,-0.343
17,GAAGTA,-0.69
18,TGCCCA,-0.449
19,TCTCGT,0.611
20,CAGTGT,0.259

row,Sequence,6-mer SELEX enrichment z-score
1,CATGAT,0.424
2,CGTGCT,0.263
3,TCACAG,1.56
4,CAGTGC,0.393
5,CGGAGC,-0.365
6,GTTCTT,0.462
7,GGTCTT,0.446
8,CCTAAT,-0.443
9,CGCGTC,0.406
10,AAGGAG,-0.855
11,GATATG,-0.401
12,GATGCT,-0.196
13,AGGATA,-0.322
14,TATACC,-0.242
15,AGGCTT,0.46
16,CAGCAG,1.68
17,GGAGAT,-0.3
18,GACGTA,-0.592
19,CATAAA,0.435
20,GTAACT,-0.324

# Target: IMP3 full-length (UniProt O00425)
# Test: as above
# Details: construct: FL IMP3 (1-579); SELEX round: R4
# Description: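 SELEX-seq with GST-tagged full-length IMP3 and an N40 RNA pool, round 4. Each 6-mer is scored as an enrichment z-score of sequence tags containing it, normalised to the matching GST SELEX round. RNA written as DNA (T = U).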
# Sequence of UniProt O00425 (O00425 whole entry): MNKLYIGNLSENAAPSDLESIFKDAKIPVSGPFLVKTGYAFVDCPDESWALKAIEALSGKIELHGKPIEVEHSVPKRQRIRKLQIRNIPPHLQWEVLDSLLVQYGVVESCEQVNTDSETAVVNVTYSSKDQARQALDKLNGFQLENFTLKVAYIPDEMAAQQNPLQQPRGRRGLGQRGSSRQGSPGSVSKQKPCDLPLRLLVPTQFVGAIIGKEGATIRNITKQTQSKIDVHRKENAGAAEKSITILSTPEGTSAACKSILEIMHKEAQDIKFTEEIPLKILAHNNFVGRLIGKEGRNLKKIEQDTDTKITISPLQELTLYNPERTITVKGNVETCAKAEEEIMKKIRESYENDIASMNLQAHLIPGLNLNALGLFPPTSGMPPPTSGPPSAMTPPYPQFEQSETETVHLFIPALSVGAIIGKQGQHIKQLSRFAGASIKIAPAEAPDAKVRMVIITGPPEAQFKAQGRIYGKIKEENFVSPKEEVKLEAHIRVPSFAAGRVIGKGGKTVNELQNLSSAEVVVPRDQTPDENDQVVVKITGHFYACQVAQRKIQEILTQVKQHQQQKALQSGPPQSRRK
row,Sequence,6-mer SELEX enrichment z-score
1,ATGCAC,1.01
2,TCTGGT,0.213
3,TAGGTT,0.072
4,CGGGTG,-0.072
5,GCCGGG,0.744
6,AGTGCC,-0.359
7,GCCTTT,-0.093
8,GTAGGT,0.081
9,CTCTAT,0.071
10,TGGACA,0.34
11,GATGAG,-0.35
12,GTCTTA,-0.027
13,GCCTCC,-0.007
14,CCACGC,-0.097
15,CGAGGT,-0.03
16,AATTTG,-0.404
17,GAAGTA,-0.564
18,TGCCCA,-1.5
19,TCTCGT,0.138
20,CAGTGT,-0.086

row,Sequence,6-mer SELEX enrichment z-score
1,CATGAT,0.883
2,CGTGCT,-0.011
3,TCACAG,1.58
4,CAGTGC,0.777
5,CGGAGC,0.011
6,GTTCTT,0.172
7,GGTCTT,0.187
8,CCTAAT,-0.778
9,CGCGTC,0.538
10,AAGGAG,-0.228
11,GATATG,-0.111
12,GATGCT,-0.034
13,AGGATA,0.059
14,TATACC,-0.598
15,AGGCTT,0.406
16,CAGCAG,1.84
17,GGAGAT,0.089
18,GACGTA,-1.12
19,CATAAA,1.01
20,GTAACT,-0.579

# Tested on: IMP3 KH1-2
# Test: as above
# Details: construct: KH1-2 (164-376); SELEX round: R4
# Description: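 SELEX-seq with GST-tagged IMP3 KH1-2 (Pro164-Phe376) and an N40 RNA pool, round 4 (stringent 300/600 mM KCl washes). 6-mer z-score of sequence-tag enrichment normalised to the corresponding GST SELEX round; RNA k-mers written as DNA (T for U).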
# Sequence of IMP3 KH1-2 (chain, as listed by the source): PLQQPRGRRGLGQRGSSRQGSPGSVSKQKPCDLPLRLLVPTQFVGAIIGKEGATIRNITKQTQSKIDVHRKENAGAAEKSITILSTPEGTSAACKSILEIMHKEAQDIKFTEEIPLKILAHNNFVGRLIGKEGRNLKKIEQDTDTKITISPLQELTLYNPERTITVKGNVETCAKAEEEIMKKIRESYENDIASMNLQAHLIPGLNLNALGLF
row,Sequence,6-mer SELEX enrichment z-score
1,ATGCAC,1.21
2,TCTGGT,0.066
3,TAGGTT,0.137
4,CGGGTG,-0.537
5,GCCGGG,0.233
6,AGTGCC,-0.904
7,GCCTTT,0.142
8,GTAGGT,-0.019
9,CTCTAT,0.466
10,TGGACA,0.354
11,GATGAG,0.091
12,GTCTTA,-0.186
13,GCCTCC,-0.237
14,CCACGC,-0.506
15,CGAGGT,-0.488
16,AATTTG,0.306
17,GAAGTA,-0.294
18,TGCCCA,-1.75
19,TCTCGT,-0.254
20,CAGTGT,-0.449

row,Sequence,6-mer SELEX enrichment z-score
1,CATGAT,1.05
2,CGTGCT,-0.261
3,TCACAG,0.484
4,CAGTGC,0.065
5,CGGAGC,-1.12
6,GTTCTT,0.235
7,GGTCTT,0.013
8,CCTAAT,-0.287
9,CGCGTC,-0.538
10,AAGGAG,0.393
11,GATATG,0.804
12,GATGCT,0.09
13,AGGATA,0.744
14,TATACC,-0.078
15,AGGCTT,0.228
16,CAGCAG,0.503
17,GGAGAT,0.719
18,GACGTA,-1.68
19,CATAAA,1.85
20,GTAACT,-0.415

# Tested on: IMP3 KH3-4
# Test: as above
# Details: construct: KH3-4 (377-579); SELEX round: R4
# Description: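 SELEX-seq with GST-tagged IMP3 KH3-4 (Pro377-Lys579) and an N40 RNA pool, round 4. 6-mer z-score of sequence-tag enrichment normalised to the corresponding GST SELEX round; RNA k-mers written as DNA (T for U).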
# Sequence of IMP3 KH3-4 (chain, as listed by the source): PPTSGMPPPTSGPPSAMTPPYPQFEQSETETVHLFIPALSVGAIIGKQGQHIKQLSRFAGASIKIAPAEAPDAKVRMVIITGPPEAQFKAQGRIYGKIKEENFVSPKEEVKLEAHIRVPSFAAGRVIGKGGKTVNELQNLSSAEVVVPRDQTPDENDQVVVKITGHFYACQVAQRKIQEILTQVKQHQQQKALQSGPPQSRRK
row,Sequence,6-mer SELEX enrichment z-score
1,ATGCAC,0.845
2,TCTGGT,0.146
3,TAGGTT,0.365
4,CGGGTG,-0.486
5,GCCGGG,-0.077
6,AGTGCC,-1.08
7,GCCTTT,0.172
8,GTAGGT,0.141
9,CTCTAT,0.464
10,TGGACA,0.284
11,GATGAG,0.452
12,GTCTTA,-0.016
13,GCCTCC,-0.775
14,CCACGC,-1.22
15,CGAGGT,-0.375
16,AATTTG,0.926
17,GAAGTA,0.099
18,TGCCCA,-2.19
19,TCTCGT,-0.147
20,CAGTGT,-0.425

row,Sequence,6-mer SELEX enrichment z-score
1,CATGAT,1.38
2,CGTGCT,-0.252
3,TCACAG,0.173
4,CAGTGC,-0.123
5,CGGAGC,-1.11
6,GTTCTT,0.326
7,GGTCTT,0.184
8,CCTAAT,-0.357
9,CGCGTC,-0.552
10,AAGGAG,0.75
11,GATATG,1.42
12,GATGCT,0.188
13,AGGATA,1.29
14,TATACC,-0.233
15,AGGCTT,0.59
16,CAGCAG,0.149
17,GGAGAT,0.976
18,GACGTA,-1.52
19,CATAAA,1.95
20,GTAACT,-0.339
